Results are given in words; binding and its absence hold for the method and conditions named. In cells and extracts the contact can be indirect. Some binding calls cover weakened binding; strength is not graded here. Tags and fused reporters may be left off the sequences shown.
T1: Myc-EHD3 (human) (UniProt Q9NZN3)
T1 sequence: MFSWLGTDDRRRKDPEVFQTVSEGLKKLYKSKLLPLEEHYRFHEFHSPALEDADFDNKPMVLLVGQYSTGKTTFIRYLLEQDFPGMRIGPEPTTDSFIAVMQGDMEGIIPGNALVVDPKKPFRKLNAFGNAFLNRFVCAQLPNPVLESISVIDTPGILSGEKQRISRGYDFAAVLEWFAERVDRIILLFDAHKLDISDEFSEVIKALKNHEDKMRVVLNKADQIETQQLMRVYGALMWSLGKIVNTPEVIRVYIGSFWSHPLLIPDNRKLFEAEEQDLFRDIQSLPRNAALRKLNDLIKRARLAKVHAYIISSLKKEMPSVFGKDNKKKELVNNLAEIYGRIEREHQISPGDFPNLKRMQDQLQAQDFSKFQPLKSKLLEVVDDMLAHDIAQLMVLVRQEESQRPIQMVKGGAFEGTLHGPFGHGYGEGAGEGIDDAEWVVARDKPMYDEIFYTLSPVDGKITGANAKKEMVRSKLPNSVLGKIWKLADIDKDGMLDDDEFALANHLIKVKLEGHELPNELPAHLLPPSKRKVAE

T2: Myc-EHD2 (human) (UniProt Q9NZN4)
T2 sequence: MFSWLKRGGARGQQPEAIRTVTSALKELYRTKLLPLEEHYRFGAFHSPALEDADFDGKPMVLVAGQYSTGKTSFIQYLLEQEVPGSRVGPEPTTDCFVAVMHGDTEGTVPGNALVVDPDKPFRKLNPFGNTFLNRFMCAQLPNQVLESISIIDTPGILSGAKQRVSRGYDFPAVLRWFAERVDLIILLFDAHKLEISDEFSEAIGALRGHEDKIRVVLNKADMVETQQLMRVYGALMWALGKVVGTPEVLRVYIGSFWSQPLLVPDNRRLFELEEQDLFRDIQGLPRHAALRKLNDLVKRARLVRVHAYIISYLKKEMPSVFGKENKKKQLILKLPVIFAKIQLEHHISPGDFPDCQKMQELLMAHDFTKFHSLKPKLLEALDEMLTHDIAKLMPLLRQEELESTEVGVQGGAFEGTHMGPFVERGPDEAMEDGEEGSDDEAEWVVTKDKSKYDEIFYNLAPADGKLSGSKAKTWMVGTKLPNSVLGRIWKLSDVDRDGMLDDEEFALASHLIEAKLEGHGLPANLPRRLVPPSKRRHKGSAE

T3: Myc-EHD1 (human) (UniProt Q9H4M9)
T3 sequence: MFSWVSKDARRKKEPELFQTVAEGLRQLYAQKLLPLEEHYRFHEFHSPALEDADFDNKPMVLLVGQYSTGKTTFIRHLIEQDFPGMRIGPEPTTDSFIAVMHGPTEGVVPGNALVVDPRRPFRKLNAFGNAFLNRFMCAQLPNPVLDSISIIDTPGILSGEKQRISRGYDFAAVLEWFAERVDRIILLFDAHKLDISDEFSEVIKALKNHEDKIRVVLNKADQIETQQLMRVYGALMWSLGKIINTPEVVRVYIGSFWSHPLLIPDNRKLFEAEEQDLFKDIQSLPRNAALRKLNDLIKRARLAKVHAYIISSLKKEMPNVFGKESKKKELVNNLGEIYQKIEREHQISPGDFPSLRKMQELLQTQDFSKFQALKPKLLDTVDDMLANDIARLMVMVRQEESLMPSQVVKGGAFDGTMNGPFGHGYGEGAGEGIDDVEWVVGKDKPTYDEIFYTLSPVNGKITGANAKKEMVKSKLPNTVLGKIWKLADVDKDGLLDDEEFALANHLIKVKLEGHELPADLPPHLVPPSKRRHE

T4: Myc-EHD4 (human) (UniProt Q9H223)
T4 sequence: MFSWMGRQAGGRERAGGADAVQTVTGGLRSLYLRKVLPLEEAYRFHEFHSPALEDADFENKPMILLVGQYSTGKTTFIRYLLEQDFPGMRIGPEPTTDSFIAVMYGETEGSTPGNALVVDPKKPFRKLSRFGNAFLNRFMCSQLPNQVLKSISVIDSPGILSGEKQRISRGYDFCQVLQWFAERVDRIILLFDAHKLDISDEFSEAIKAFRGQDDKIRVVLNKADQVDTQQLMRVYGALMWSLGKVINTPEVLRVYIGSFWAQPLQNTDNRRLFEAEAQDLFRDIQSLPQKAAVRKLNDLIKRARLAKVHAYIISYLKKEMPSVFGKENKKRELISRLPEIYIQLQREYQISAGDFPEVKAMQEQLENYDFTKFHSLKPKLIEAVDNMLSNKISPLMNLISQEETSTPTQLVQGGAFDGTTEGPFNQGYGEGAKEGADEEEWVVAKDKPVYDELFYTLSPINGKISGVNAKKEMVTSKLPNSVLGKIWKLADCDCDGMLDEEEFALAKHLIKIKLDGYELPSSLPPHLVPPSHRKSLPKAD

T5: Myc-EHD1 ΔEH (human) (UniProt Q9H4M9)
T5 sequence: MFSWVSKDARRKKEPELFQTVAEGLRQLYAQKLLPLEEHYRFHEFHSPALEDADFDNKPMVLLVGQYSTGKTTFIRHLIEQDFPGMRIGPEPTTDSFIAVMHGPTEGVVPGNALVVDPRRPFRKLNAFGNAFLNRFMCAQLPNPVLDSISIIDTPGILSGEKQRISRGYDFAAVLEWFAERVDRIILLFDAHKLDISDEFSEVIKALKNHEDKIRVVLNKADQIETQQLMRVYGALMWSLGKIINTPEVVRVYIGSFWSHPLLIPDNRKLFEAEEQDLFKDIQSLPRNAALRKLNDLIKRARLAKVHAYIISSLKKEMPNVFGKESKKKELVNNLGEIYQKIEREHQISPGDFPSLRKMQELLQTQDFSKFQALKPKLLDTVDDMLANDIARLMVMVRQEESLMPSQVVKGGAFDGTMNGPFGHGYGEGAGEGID

B1: EHD4-GFP (protein, UniProt Q9H223 1-541)
chain: T4 sequence
B2: EHD1-GFP (protein, UniProt Q9H4M9 1-534)
chain: T3 sequence
B3: EHD3-GFP (protein, UniProt Q9NZN3-1 1-535)
chain: T1 sequence
B4: EHD2-GFP (protein, UniProt Q9NZN4 1-543)
chain: T2 sequence

These binders were tested against T1, Myc-EHD3 (human) (assay: co-IP; HeLa cells, Myc- and GFP-tagged EHD proteins; data not shown).

binding	Binder
binds	B1
binds	B2
binds	B3
binds weakly	B4

The binders below were run against T2, Myc-EHD2 (human) in the same assay as above.

binding	Binder
binds weakly	B1
binds weakly	B3
binds	B4

What follows are binders tested against T3, Myc-EHD1 (human) in the same assay as above.

binding	Binder
binds	B1
binds	B2
binds	B3

These binders were tested against T4, Myc-EHD4 (human) in the same assay as above.

binding	Binder
binds	B1
binds	B2
binds	B3
binds weakly	B4

The binders below were run against T5, Myc-EHD1 ΔEH (human) (assay: co-IP; HEK 293T co-transfected with one Myc-EHD ΔEH and one EHD-GFP construct; same lysis buffer; lysates rocked only 1–2 hours at 4°C; IP anti-Myc (9E10), anti-GFP immunoblot).

binding	Binder
binds	B1
binds	B2
binds	B3
binds	B4

From publication PMC1793994
